According to article PMC4336329 (PLoS ONE, 2015):
In all, about 310,000 compounds went through this assay and about 2,200 (0.71%) showed an effect of 50% or more. Effects have a minus sign here. This is one part of the list.

Target: human ether-à-go-go-related gene (hERG) potassium channel (human, UniProt Q12809)
Test: primary screen, population patch clamp on CHO cells stably expressing hERG

human ether-à-go-go-related gene (hERG) potassium channel, sequence (Q12809 whole entry, looked up): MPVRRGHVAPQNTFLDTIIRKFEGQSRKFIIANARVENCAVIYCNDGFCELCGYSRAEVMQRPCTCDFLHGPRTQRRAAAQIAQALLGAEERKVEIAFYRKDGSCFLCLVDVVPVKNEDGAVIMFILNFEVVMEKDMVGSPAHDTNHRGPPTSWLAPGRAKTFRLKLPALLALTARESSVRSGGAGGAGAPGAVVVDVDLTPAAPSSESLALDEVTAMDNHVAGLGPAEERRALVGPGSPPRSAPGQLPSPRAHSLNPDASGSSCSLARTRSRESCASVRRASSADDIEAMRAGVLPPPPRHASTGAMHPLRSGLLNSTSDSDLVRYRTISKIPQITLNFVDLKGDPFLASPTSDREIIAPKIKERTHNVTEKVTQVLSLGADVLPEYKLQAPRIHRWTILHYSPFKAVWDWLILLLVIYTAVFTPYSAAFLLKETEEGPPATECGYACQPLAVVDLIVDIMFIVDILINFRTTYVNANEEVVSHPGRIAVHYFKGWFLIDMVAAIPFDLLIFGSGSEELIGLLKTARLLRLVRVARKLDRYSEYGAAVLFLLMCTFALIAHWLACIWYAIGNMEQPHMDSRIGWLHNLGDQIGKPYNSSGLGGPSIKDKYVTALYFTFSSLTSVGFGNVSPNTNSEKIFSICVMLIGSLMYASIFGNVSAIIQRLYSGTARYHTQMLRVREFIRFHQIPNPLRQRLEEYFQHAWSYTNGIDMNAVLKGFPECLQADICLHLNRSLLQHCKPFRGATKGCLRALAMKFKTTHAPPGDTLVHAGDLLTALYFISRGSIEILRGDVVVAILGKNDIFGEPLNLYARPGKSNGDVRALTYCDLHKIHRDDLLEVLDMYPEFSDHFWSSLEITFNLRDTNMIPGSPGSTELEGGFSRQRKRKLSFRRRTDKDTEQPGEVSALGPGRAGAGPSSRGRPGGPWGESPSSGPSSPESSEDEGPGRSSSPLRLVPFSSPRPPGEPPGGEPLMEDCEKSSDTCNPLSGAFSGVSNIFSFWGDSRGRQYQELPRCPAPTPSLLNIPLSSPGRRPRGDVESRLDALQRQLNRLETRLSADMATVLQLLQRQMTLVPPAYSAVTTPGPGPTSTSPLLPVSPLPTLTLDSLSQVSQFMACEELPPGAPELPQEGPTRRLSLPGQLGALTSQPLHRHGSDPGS

Compound	hERG current change (%, negative = inhibition) at 1uM [%]
O=C1/C(=C/c2ccco2)Oc2c1ccc(O)c2CN1CCCCC1	-0.366
CCOc1ccccc1NC(=O)Nc1ccncc1	4.41
Cn1c(N)c(C(=O)CSc2nc(C3CC3)n(-c3ccccc3)n2)c(=O)n(C)c1=O	-7.97
CCCn1c(C)cc(C=O)c1C	21.5
CC(C)Sc1nc(N2CCOCC2)c2c(c1C#N)CC(C)(C)SC2	13.3
O=C(CSc1nnc(CNC(=O)c2cccs2)o1)c1ccccc1	10.7
O=C(c1cccc(C(F)(F)F)c1)C1CCCN(Cc2ncc[nH]2)C1 (stereo not drawn)	11.1
Cc1ccc(Cn2cc(C=O)c(-c3ccc(F)cc3)n2)cc1	18
O=C(CCN1C(=O)S/C(=C\C=C\c2ccccc2)C1=O)Nc1ccc(O)cc1	1.63
CCOCCCn1c(=S)[nH]c2cc(C(=O)N3CCC(C(N)=O)(N4CCCCC4)CC3)ccc2c1=O	9.01
Br.CC1(C(=O)CSc2ncn[nH]2)CCC(=O)O1 (stereo not drawn)	8.73
CCN(CC)c1ccc(C(=O)Nc2cccc(F)c2)cc1	-5.11
Br.Cc1ccnc(Nc2nc(-c3ccc(Cl)cc3)cs2)c1	9.55
O=C(Nc1ccccc1C(=O)NCC1CCCO1)c1ccc(Cl)cc1 (stereo not drawn)	0.913
CCOc1ccc2c(c1)C(c1ccc(C)cc1)=NNC(c1ccc(OC)cc1)=N2	-3.73
O=C(/C=C/c1ccccc1)N1CCC(N2CCC(C(=O)N3CCOCC3)CC2)CC1	2.83
O=C(NCc1cc([N+](=O)[O-])ccc1O)c1cccnc1Sc1ccccc1Cl	22.1
Cc1ccc(Nc2ccccc2)nn1	12.4
CCOC(=O)c1ccc(NC(=O)Nc2ccc(Cl)cn2)cc1	4.63
CCOc1ccccc1NC(=O)c1ccc(S(=O)(=O)N2CCOCC2)cc1	-0.445
CCCCOc1ccccc1C(=O)NCCCC(=O)O	11.2
CCc1ccc(N(CC(=O)NCc2ccc3c(c2)OCO3)C(=O)c2csnn2)cc1	8.92
COc1ccc(C(=O)OCC(=O)c2ccc(CNC(C)=O)s2)cc1	-5.56

Compound	hERG current change (%, negative = inhibition) at 1uM [%]
O=C(Nc1ccc(F)cc1)c1nc2c(nnn2Cc2cccc3ccccc23)c(=O)[nH]1	20.4
CSc1cccc(-n2c(C)cc(C(N)=O)c2C)c1	14.2
Cc1cc(C)nc(SCc2nnc(SCC(=O)N3CCCc4ccccc43)n2C)n1	3.32
CCOc1cc(C2C3=C(CCCC3=O)NC3=C2C(=O)CCC3)ccc1OCCO	9.61
COc1ccc(-n2ncc3c(NCc4ccccn4)ncnc32)cc1	-3.69
CCN(CC)CCCNC(=O)/C(=C\c1cccn1C)NC(=O)c1cccs1	12.8
Cc1ccccc1NC(=S)Nc1ccccn1	14.9
FC(F)(F)COc1ccc(-c2nnc(SCc3ccccc3)o2)cn1	6.62
Cc1cc(-c2nnc(SCC(=O)Nc3c(C)cccc3C)n2N)n[nH]1	9.64
Oc1c(Br)cc(Br)cc1/C=N/N1CCN(Cc2ccccc2)CC1	16.3
Cc1ccc(NC(=O)Cc2ccc(-c3ccccc3)cc2)nc1	11.3
COC(=O)[C@H](Cc1ccccc1)NC(=O)Nc1ccc(OC)cc1	8.42
Cc1nc(N)[nH]c(=O)c1CCC(=O)OCC(C)C	16.7
COCCCN1C(=O)c2[nH]nc(-c3ccccc3O)c2C1c1cccc(Cl)c1 (stereo not drawn)	16.8
CC12CN3CC(C)(CN(C1)C3c1ccc(F)cc1)C2 (stereo not drawn)	-17.9
O=c1c2c(-c3ccccc3)csc2ncn1/N=C/c1ccc(O)c([N+](=O)[O-])c1	8.46
CCOC(=O)c1c(NC(=O)Cc2cccs2)sc(C(=O)NC2CCCC2)c1C	0.408
COC(=O)Nc1ccc(S(=O)(=O)N(CCO)CCO)cc1	-4.28
CCOc1nc(-c2ccccc2)c2cc(Br)ccc2n1	16.7
COc1ccc(/C=N\NC(=O)c2cc(OCC(F)(F)F)ccc2OCC(F)(F)F)cc1	8.56
CC(Sc1nnc(Cc2ccc3c(c2)OCO3)o1)C(N)=O (stereo not drawn)	-5.91
Cc1ccc(C(=O)CSc2nc3cccnc3n2C)cc1	10.9
C/C(=N\NC(N)=S)c1ccc(Cl)s1	13.5

Compound	hERG current change (%, negative = inhibition) at 1uM [%]
C[C@@H]1CCC[C@@]2(O[C@H](CCO)C[C@H](O)[C@H]2O)O1	2.55
C/C(N)=C(/C#N)C(=O)CN1CCCCC1	5.74
COc1cccc(/C=C/C(=O)NCc2ccc3c(c2)OCO3)c1	6.97
NC(=O)CN1C(=O)NC2(CCOc3ccccc32)C1=O (stereo not drawn)	14.3
COc1cccc(-c2nc(CS(=O)(=O)CC(=O)Nc3ccc(C(C)=O)cc3)c(C)o2)c1	17.3
CC(NC(=O)c1sc2cc([N+](=O)[O-])ccc2c1Cl)C(C)(C)C (stereo not drawn)	2.53
Cc1ccc2oc(=O)n(CC(=O)OC(C)C)c2c1	3.72
CC(C)(C)N=C1NN=C(c2ccc(Cl)cc2)CS1	10.4
CCOC(=O)N/N=C\C=C\c1ccc2c(c1)OCO2	5.37
CC1CN(CCc2ccccc2)c2nc3c(c(=O)n(CC(N)=O)c(=O)n3C)n2C1 (stereo not drawn)	9.4
OC(COCc1ccc(Cl)cc1)CN1CCN(CC(O)COCc2ccc(Cl)cc2)CC1 (stereo not drawn)	-67.5
CC(=O)N1c2ccc(S(=O)(=O)N3CCC(C(=O)NC4CCCCC4)CC3)cc2CC1C (stereo not drawn)	14.1
Cc1[nH]c(C)c(S(=O)(=O)NCCc2ccc(S(N)(=O)=O)cc2)c1C(=O)N1CCCC1	12.3
CC(=O)c1ccc(NC(=S)Nc2cccc3cnccc23)cc1	11.8
COCCN(C(=O)COC(=O)C(c1ccccc1)c1ccccc1)c1c(N)n(Cc2ccccc2)c(=O)[nH]c1=O	10.9
CCOCCn1c(=O)c2c(nc3n2CC(C)CN3Cc2ccccc2)n(C)c1=O (stereo not drawn)	-14.4
O=C(Nc1ccccn1)c1ccc(Br)s1	13.3
Nc1nc(CSc2nc3ccccc3s2)nc(N2CCCCC2)n1	13.4
COc1cccc(NP(=O)(Oc2ccccc2)Oc2ccccc2)c1	-0.972
O=C(CC(=O)Nc1ccccc1C(F)(F)F)Nc1ccccc1C(F)(F)F	13.7
CC(=O)NCc1ccc(S(=O)(=O)N/N=C/c2ccc(Br)cc2)cc1	12.2
CCN(CC(=O)Nc1c(F)cccc1F)C(=O)CSCc1c(C)noc1C	11.5
CC(C)(C)C(=O)/C(C#N)=C/c1cccs1	10.2

Compound	hERG current change (%, negative = inhibition) at 1uM [%]
Cc1ccccc1-c1nc(CS(=O)(=O)CC(=O)N2CCc3ccccc3C2)c(C)o1	-3.9
CC(/C=C/c1ccc(N(C)C)cc1)=N\N=C(/N)SC1CC(=O)N(c2ccc(C(=O)O)cc2)C1=O (stereo not drawn)	3.7
NC(=O)c1cc(N)ccc1N1CCCC1	6.77
Cc1csc(NC(=O)CSc2nc3[nH]ncc3c(=O)[nH]2)n1	19.9
CS(=O)(=O)N(CC(=O)N1CCCC1)c1cccc(Cl)c1	8.28
CC(C)CC[n+]1ccccc1/C=C/c1ccc(N(C)C)cc1.[I-]	-26.2
C#CCOCCOCCOCCNc1nc(N2CCN(C(=O)[C@H](CCCC[NH3+])n3cc(CCCC)nn3)CC2)nc(N2CCN(C(=O)[C@H](CCCC[NH3+])n3cc(CCC(=O)O)nn3)CC2)n1.[Cl-]	10.5
Cc1ccc(S(=O)(=O)N2CCCCC2)cc1C(=O)NC1CC(C)(C)NC(C)(C)C1	12.6
CC(=O)O.Cc1ccc2nc(N3C(=O)C(O)=C(C(=O)c4cc5ccccc5o4)C3c3cccs3)sc2c1 (stereo not drawn)	11.2
Cc1ccc(NS(=O)(=O)c2ccc3[nH]c(=O)c(=O)[nH]c3c2)cc1Cl	9.72
CNCc1c(C)nn(-c2ccccc2)c1C	13.3
CC(=O)N1C(=O)CC(C)N(C(C)=O)c2ccc([N+](=O)[O-])cc21 (stereo not drawn)	4.26
CN(C(=O)CN1C(=O)c2ccccc2S1(=O)=O)c1ccccc1C(=O)O	14.4
COc1cccc(NC(=O)Nc2cccnc2)c1	4.8
COc1cccc(CNC(=O)C(=O)NCC(c2ccco2)N2CCOCC2)c1 (stereo not drawn)	10.9
COC(=O)[C@@H]1CCCN1C(=O)CCc1nnc(CCC2CCCCC2)o1	14.2
N#Cc1ccc(OCC(=O)NC2=NCCS2)cc1	10.5
COCCNc1cc(C)nc2c3c(C)cc(C)nc3nn12	2.82
COc1ccc2nc(N3CCCC(C(=O)NCCc4ccc(OC)c(OC)c4)C3)sc2c1 (stereo not drawn)	7.19
O=C(COC(=O)c1sc2ccccc2c1Cl)NC1CCCCC1	14.2
S=C(NCCN1CCOCC1)Nc1ccc(Br)cc1	12.7
